The campaign covered roughly 310,000 compounds. About 2,200 (0.71%) showed an effect of 50% or more. The effect is printed as a negative number. This is one part of the list.

For the assay, the target named is human ether-à-go-go-related gene (hERG) potassium channel (human, UniProt Q12809). The experiment in a line: primary screen, population patch clamp on CHO cells stably expressing hERG.
Chain of human ether-à-go-go-related gene (hERG) potassium channel (Q12809 whole entry, looked up): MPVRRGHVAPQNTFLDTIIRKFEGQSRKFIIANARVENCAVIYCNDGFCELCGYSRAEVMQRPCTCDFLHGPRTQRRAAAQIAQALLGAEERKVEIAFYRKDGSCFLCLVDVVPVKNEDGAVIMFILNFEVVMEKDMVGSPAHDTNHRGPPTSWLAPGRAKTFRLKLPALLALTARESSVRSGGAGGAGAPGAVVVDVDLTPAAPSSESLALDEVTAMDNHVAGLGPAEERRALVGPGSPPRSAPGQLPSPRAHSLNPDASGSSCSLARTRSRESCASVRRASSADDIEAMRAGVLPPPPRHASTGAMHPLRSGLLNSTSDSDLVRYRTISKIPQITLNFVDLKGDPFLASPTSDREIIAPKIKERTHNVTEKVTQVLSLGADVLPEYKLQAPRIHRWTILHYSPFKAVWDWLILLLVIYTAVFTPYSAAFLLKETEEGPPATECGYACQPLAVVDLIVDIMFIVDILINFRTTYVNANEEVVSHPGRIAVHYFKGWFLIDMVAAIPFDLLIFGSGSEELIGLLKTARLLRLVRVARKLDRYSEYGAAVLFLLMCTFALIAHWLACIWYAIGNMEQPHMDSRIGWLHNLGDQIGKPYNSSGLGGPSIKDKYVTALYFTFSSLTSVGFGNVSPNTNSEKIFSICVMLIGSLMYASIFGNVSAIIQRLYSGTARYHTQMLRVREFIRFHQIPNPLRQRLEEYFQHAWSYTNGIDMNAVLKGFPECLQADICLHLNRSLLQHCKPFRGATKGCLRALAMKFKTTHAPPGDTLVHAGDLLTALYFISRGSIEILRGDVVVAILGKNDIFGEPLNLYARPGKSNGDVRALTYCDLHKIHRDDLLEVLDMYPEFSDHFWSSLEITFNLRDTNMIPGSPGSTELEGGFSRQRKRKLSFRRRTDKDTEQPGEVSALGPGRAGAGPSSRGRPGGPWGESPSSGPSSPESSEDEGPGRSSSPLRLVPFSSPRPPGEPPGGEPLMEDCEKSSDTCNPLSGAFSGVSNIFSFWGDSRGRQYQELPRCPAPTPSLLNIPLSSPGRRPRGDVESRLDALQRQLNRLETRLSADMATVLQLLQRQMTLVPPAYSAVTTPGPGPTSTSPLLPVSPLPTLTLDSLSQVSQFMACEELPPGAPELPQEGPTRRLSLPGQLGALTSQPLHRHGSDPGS
With `CCNc1nc(NC(C)C)nc(Oc2ccc(OCc3ccccc3)nn2)n1`, the “hERG current change (%, negative = inhibition) at 1uM” value stood at 3.26%.

As for `CCOc1ccc(OCC)c(S(=O)(=O)n2cnc(C)c2)c1`, the “hERG current change (%, negative = inhibition) at 1uM” value stood at 11%. Consider `Cc1ccc(CSCC2Nc3ccc(C(=O)N4CCN(c5ccc(F)cc5)CC4)cc3NC2=O)cc1` (stereo not drawn), for which the “hERG current change (%, negative = inhibition) at 1uM” value was 16.7%.

`O=C(NCc1ccco1)c1cc(-c2cccs2)nc2ccccc12`: the “hERG current change (%, negative = inhibition) at 1uM” value came to 13.4%.

On to `COc1ccc(CC(=O)NC(=S)NNC(=O)COc2c(C)cccc2C)cc1`, for which the “hERG current change (%, negative = inhibition) at 1uM” value is listed as 4.76%.

Take `CCCCCCC12CCC(C(=O)O)(CC1)CC2`: the “hERG current change (%, negative = inhibition) at 1uM” value is 4.88%. In the case of `CNC(=S)NNC(=O)c1oc2nc(-c3ccccc3)cc(C)c2c1N`, the “hERG current change (%, negative = inhibition) at 1uM” value is on record as -3.52%. In the case of `CCOC(=O)c1c(C)[nH]c(C)c1S(=O)(=O)N(C)Cc1ccco1`, the “hERG current change (%, negative = inhibition) at 1uM” value is 18.2%.

Take `CCc1ccc(NC(=O)c2ccc(Cn3cc([N+](=O)[O-])cn3)cc2)cc1`: the “hERG current change (%, negative = inhibition) at 1uM” value stood at 10.6%. Regarding `CN(Cc1ccccc1)S(=O)(=O)c1ccc(OCC(=O)Nc2cccc([N+](=O)[O-])c2)cc1`, the “hERG current change (%, negative = inhibition) at 1uM” value stood at 7.23%. Then `COc1ccc(S(=O)(=O)N(CC(=O)Nc2cccnc2)c2ccccc2OC)cc1`, with 0.84%; and `O=C(O)CCC1COc2ccccc2O1` (stereo not drawn), with 15.5%; and `CN(C(=O)NC(=O)C1=C(N2CCOCC2)/C(=C/c2ccccc2)CC1)S(C)(=O)=O`, with 13.8%. On to `O=C(Nc1nccs1)c1ccc2nccnc2c1`, for which the “hERG current change (%, negative = inhibition) at 1uM” value stood at 11.6%. Regarding `CCOc1ccc(C2C(C#N)=C(N)Oc3cc(O)ccc32)cc1OCC` (stereo not drawn), the “hERG current change (%, negative = inhibition) at 1uM” value turned out to be 11.8%. Consider `CN1C(=O)c2ccc(C(=O)Nc3nccs3)cc2C1=O`, for which the “hERG current change (%, negative = inhibition) at 1uM” value is -36.3%. Consider `CCn1c(C)cc(=O)cc1-c1ccc(Cl)cc1`, for which the “hERG current change (%, negative = inhibition) at 1uM” value came out at 12.8%. In the case of `Cc1noc2ncnc(Sc3ccc(Br)cc3)c12`, the “hERG current change (%, negative = inhibition) at 1uM” value was 7.75%. For `COC(=O)c1cccc(NC(=O)NC23CC4CC(CC(C4)C2)C3)c1`, the “hERG current change (%, negative = inhibition) at 1uM” value turned out to be 3.34%.

In the case of `CN1C(C(=O)NCC2CC2)CC2Cn3c(nc4cc5ccccc5cc43)C21` (stereo not drawn), the “hERG current change (%, negative = inhibition) at 1uM” value amounted to 7.22%. Then `O=C(NCc1cc(C(F)(F)F)cc(C(F)(F)F)c1)C1CC(c2ccccc2F)=NO1` (stereo not drawn), with 9.77%; and `CCCCn1c(SCC(=O)NC(C)CC)nc2ccc(N3CCOCC3)cc2c1=O` (stereo not drawn), with 4.61%; and `CCc1cc(CNC(=O)CC2C(=O)NCCN2Cc2ccc(-c3ccccc3)cc2)on1` (stereo not drawn), with -0.485%. With `CCC(C)C(Nc1ccc(C(=O)OC)cc1[N+](=O)[O-])C(=O)OC` (stereo not drawn), the “hERG current change (%, negative = inhibition) at 1uM” value was determined as 17.1%. Regarding `CC(=O)c1c(N2CCCCC2)nc(=S)n(-c2ccccc2)c1C`, the “hERG current change (%, negative = inhibition) at 1uM” value was -0.721%. `O=c1[nH]c(=S)[nH]cc1S(=O)(=O)c1cccc(Cl)c1`: the “hERG current change (%, negative = inhibition) at 1uM” value was 14.5%.

For `CC(=O)c1cccc(NC(=O)N2C[C@H]3C[C@@H](C2)c2cccc(=O)n2C3)c1`, the “hERG current change (%, negative = inhibition) at 1uM” value is 8.97%. Turning to `Cc1ccc2c(c1)COc1c3ccc(C(=O)N4CCOCC4)cc3nn1-2`, the “hERG current change (%, negative = inhibition) at 1uM” value came to 2.38%. For `CON(C)S(=O)(=O)c1cccc(C(=O)NC2CCSc3ccccc32)c1` (stereo not drawn), the “hERG current change (%, negative = inhibition) at 1uM” value worked out at 8.71%. As to `N#Cc1ccccc1CN1C(=O)S/C(=C/c2cccn2-c2cccc(C(=O)O)c2)C1=O`, the “hERG current change (%, negative = inhibition) at 1uM” value is -6.72%.

For `O=C(COc1ccccc1F)NC12CC3CC(CC(C3)C1)C2`, the “hERG current change (%, negative = inhibition) at 1uM” value turned out to be 2.8%. For the compound `COc1ccccc1CNC(=O)c1ccc(CS(=O)(=O)c2ccc(C)cc2)o1`, the “hERG current change (%, negative = inhibition) at 1uM” value turned out to be 3.63%. Take `O=c1ccnc2n1COCS2`: the “hERG current change (%, negative = inhibition) at 1uM” value is listed as 14.3%. Take `CCN(C(=O)COC(=O)c1cncc(Br)c1)C1CCS(=O)(=O)C1` (stereo not drawn): the “hERG current change (%, negative = inhibition) at 1uM” value was 21.3%. On to `CCc1nnc(NC(=O)CCC(=O)NCc2ccc(OC)cc2)s1`, for which the “hERG current change (%, negative = inhibition) at 1uM” value is 9.45%. Consider `Cc1cccc(C(=O)Nc2cc(NC(=O)c3cccs3)ccc2C)c1`, for which the “hERG current change (%, negative = inhibition) at 1uM” value came out at 11.1%.

`Cc1ccc(NC(=O)CSC(C)c2nc3ccccc3c(=O)[nH]2)cc1` (stereo not drawn): the “hERG current change (%, negative = inhibition) at 1uM” value came out at 7.19%. For `CCSc1ncc(Cl)c(C(=O)Nc2ccccc2OC)n1`, the “hERG current change (%, negative = inhibition) at 1uM” value came out at 12.5%. Turning to `CSCCC(NC(=O)c1ccc(Cl)cc1)C(=O)OCC(=O)Nc1ccc(C#N)cc1` (stereo not drawn), the “hERG current change (%, negative = inhibition) at 1uM” value is -1.39%. Next, `CCc1ccccc1OCCCCN1CCCCC1.O=C(O)C(=O)O`: -0.482%; `Cl.NC(=NCCc1ccccc1)c1cccc([N+](=O)[O-])c1`: -10.5%; `CCS(=O)(=O)c1ccc(O)c(NC(=O)COc2ccc(Br)cc2)c1`: 18.6%.

Turning to `CCC(=O)N(Cc1cc(=O)[nH]c2ccccc12)c1ccc(C)cc1`, the “hERG current change (%, negative = inhibition) at 1uM” value is recorded as -1.06%. Regarding `COc1ccc(NC(=O)CS(=O)c2cccc(Cl)c2)cc1` (stereo not drawn), the “hERG current change (%, negative = inhibition) at 1uM” value worked out at 1.95%.

Consider `COc1ccc(S(=O)(=O)Nc2ccccc2C(=O)NCc2cccnc2)cc1OC`, for which the “hERG current change (%, negative = inhibition) at 1uM” value worked out at 13.6%.

(Values after PMC4336329 (PLoS ONE, 2015).)
